Measured values published in patent publication US20150010574A1.

Molecular target: IGF bioactivity in human serum pooled from healthy donors (20%)
Test: cell-based or functional assay

B1: antibody 60833 (antibody, human IgG1, lambda)
heavy: QVELVESGGGLVQPGGSLRLSCAASGFTFTSYWMSWVRQAPGKGLELVSSITSYGSFTYYADSVKGRFTISRDNSKNTLYLQMNSLRAEDTAVYYCARNMYTHFDSWGQGTLVTVSS[human IgG1 constant region left out here]
light: DIVLTQPPSVSGAPGQRVTISCSGSSSNIGSNSVSWYQQLPGTAPKLLIYDNSKRPSGVPDRFSGSKSGTSASLAITGLQSEDEADYYCQSRDTYGYYWVFGGGTKLTVLGQPKAAPSVTLFPPSSEELQANKATLVCLISDFYPGAVTVAWKGDSSPVKAGVETTTPSKQSNNKYAASSYLSLTPEQWKSHRSYSCQVTHEGSTVEKTVAPTECS
% Remaining Phosphorylation at 15 µg/mL (100 nM) Inhibitor; human serum (20%) induced IGF-1R phosphorylation: 5% | IC50 of human serum (20%) induced IGF-1R phosphorylation, cell based ELISA: 0.25 µg/mL
